# Measurements from PubChem BioAssay (Tox21).
# “And” between values parts separate entries of the source, which are not always exact repeats. Identical values can stand only once. Inconclusive means that the source gave no clear call. Such entries were picked first, then a sample of the others. Entries that show only a call come without a potency. For part of these data: Potencies of inconclusive entries are doubtful fits and often do not repeat. A structure can be active in one record and inactive in another. The source made the active and inactive calls. Unless noted, calls come from the whole dose curve; as a rule, active = well fitted curve in the direction sought with a large enough effect in the repeat runs; inconclusive = weak or mixed curves; inactive = no such curve, though single readings can be large; an effect the other way counts as inactive or inconclusive.
# How the values were obtained:
# [1] = qHTS assay to identify small molecule agonists of the farnesoid-X-receptor (FXR) signaling pathway - cell viability counter screen (AID 743218); conditions: FXR-bla HEK293T viability, CellTiter-Glo luminescence, 16 h; viability change, negative = cytotoxic: at 62.6 µM (top of the series) unless noted; note: nearly all actives have a fitted effect of over 45% in size; note: potency is the fitted concentration of half-maximal effect
# How it was run: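 FXR-UAS-bla HEK 293T cells exposed to compounds for 16 h at 37C. Cytotoxicity read in the same wells by CellTiter-Glo luminescence after 30 min at room temperature, following the beta-lactamase FRET read.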
# [2] = qHTS assay to identify small molecule antagonists of the vitamin D receptor (VDR) signaling pathway - cell viability counter screen (AID 743225); conditions: VDR-bla HEK293T viability, CellTiter-Glo luminescence, 16 h; viability change, negative = cytotoxic: at 61 µM (top of the series) unless noted; note: nearly all actives have a fitted effect of over 50% in size; note: potency is the fitted concentration of half-maximal effect
# How it was run: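 HEK293T VDR-bla; cpd + 1a,25-(OH)2D3 3 nM final, 16 h 37C/5% CO2; B/G FRET substrate 2 h RT; then CellTiter-Glo 30 min RT, luminescence.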
# [3] = biological target: Estrogen receptor (Homo sapiens) (UniProt P03372); experiment: qHTS assay to identify small molecule antagonists of the estrogen receptor alpha (ER-alpha) signaling pathway (AID 743069; active = well fitted curve in the direction sought with a large enough effect in the signal ratio in the repeat runs, not every such curve was filed as active; inconclusive = weak or mixed curves, or effect the other way; inactive = no such curve, though single readings can be large or run the other way; the % refers to the signal ratio); conditions: HEK293 ER-alpha-UAS-bla, beta-lactamase ratio, antagonist mode; activity, negative = inhibition: at 69.4 µM (top of the series) unless noted
# Chain of UniProt P03372 (P03372 whole entry, looked up): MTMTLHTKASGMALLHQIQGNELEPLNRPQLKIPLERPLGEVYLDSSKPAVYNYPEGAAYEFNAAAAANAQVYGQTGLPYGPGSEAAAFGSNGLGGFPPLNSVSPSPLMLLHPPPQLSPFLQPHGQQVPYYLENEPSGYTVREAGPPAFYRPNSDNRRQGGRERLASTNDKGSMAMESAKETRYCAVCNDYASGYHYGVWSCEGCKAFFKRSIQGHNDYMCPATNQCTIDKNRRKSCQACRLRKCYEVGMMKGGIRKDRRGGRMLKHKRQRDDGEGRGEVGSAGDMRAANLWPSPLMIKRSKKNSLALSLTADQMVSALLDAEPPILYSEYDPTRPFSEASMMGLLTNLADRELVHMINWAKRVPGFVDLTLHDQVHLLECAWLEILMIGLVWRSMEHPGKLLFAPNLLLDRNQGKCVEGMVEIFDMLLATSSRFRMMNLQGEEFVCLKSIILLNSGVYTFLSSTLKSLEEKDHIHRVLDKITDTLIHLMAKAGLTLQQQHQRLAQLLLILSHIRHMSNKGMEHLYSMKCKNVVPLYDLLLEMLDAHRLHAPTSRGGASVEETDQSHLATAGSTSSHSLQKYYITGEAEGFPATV
# How it was run: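 Compound effects are measured against 17beta-estradiol stimulation in HEK293 cells with a UAS-controlled beta-lactamase reporter for ER-alpha. Exposure lasts 18 hr at 37C; LiveBLAzer B/G FRET substrate follows for 2 hr at room temperature.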
# [4] = qHTS assay to identify small molecule antagonists of the estrogen receptor alpha (ER-alpha) signaling pathway - cell viability counter screen (AID 743074; calls by dose curve;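 note: HEK293 cells carrying ER-alpha-UAS-bla reporter stimulated with 17beta-estradiol; nearly all actives have a fitted effect of over 45% in size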; note: potency is the fitted concentration of half-maximal effect)
# [5] = qHTS RealTime-Glo MT Cell Viability Assay in HEK293 cells - 24 hour (AID 1224886); note: nearly all actives have a fitted effect of over 50% in size; note: potency is the fitted concentration of half-maximal effect; for activity change, negative = cytotoxicity: top concentration of the series differs between compounds
# How it was run: (§1)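 Cells + reagent dispensed (600 cells/well, HEK293) → 5 h at 37 C/5% CO2 → 23 nL compound in DMSO pinned → 40 h at 37 C → luminescence read at 0, 8, 16, 24, 32, 40 h.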
# [6] = qHTS assay to identify small molecule agonists of the estrogen receptor beta (ER-beta) signaling pathway - cell viability counter screen (AID 1259380); note: nearly all actives have a fitted effect of over 30% in size; note: potency is the fitted concentration of half-maximal effect
# How it was run: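 ER-beta-UAS-bla HEK293T cells in medium with 2% charcoal-stripped FBS, pre-incubated 6 hr, then treated 16 hr at 37C. Cytotoxicity read in the same wells by CellTiter-Glo luminescence after 30 min at room temperature.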
# [7] = qHTS assay to identify small molecule antagonists of the estrogen receptor alpha (ER-alpha) signaling pathway using the BG1 cell line (AID 743080; calls by dose curve;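 note: BG1 cells stimulated with 17beta-estradiol alongside compound; nearly all actives have a fitted effect of over 25% in size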; note: potency is the fitted concentration of half-maximal effect); conditions: BG1Luc4E2 ERE-luciferase antagonist mode, luminescence; activity change, negative = inhibition: at 70.3 µM (top of the series) unless noted
# How it was run: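 BG1Luc4E2, endogenous ER-alpha, 4xERE-luc; 5 d charcoal-stripped FBS, phenol red free; 24 h plating; cpd + 17beta-estradiol 21.5 h, 37 C/5% CO2; CellTiter-Fluor viability 30 min, then ONE-Glo luciferase 30 min RT.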
# [8] = qHTS assay to identify small molecule antagonists of the peroxisome proliferator-activated receptor delta (PPARd) signaling pathway - cell viability counter screen (AID 743213); conditions: PPARd-bla HEK293H viability, CellTiter-Glo luminescence, 17 h; viability change, negative = cytotoxic: at 62 µM (top of the series) unless noted; note: nearly all actives have a fitted effect of over 50% in size; note: potency is the fitted concentration of half-maximal effect
# How it was run: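 Luminescence from CellTiter-Glo, added after the bla read and incubated 30 min at room temperature, gives viability of HEK293H PPARd-bla cells exposed to compounds for 17 h at 37 C with 300 nM L165041.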
# [9] = biological target: Progesterone receptor (Homo sapiens) (UniProt P06401); experiment: qHTS assay to identify small molecule agonists of the progesterone receptor (PR) signaling pathway (AID 1346784; calls by dose curve; note: nearly all actives have a fitted effect of over 30% in size; note: potency is the fitted concentration of half-maximal effect); conditions: PR-UAS-bla HEK293T, beta-lactamase FRET ratio, 16 h; activation: at 92.4 µM (top of the series) unless noted
# Chain of UniProt P06401 (P06401 whole entry, looked up): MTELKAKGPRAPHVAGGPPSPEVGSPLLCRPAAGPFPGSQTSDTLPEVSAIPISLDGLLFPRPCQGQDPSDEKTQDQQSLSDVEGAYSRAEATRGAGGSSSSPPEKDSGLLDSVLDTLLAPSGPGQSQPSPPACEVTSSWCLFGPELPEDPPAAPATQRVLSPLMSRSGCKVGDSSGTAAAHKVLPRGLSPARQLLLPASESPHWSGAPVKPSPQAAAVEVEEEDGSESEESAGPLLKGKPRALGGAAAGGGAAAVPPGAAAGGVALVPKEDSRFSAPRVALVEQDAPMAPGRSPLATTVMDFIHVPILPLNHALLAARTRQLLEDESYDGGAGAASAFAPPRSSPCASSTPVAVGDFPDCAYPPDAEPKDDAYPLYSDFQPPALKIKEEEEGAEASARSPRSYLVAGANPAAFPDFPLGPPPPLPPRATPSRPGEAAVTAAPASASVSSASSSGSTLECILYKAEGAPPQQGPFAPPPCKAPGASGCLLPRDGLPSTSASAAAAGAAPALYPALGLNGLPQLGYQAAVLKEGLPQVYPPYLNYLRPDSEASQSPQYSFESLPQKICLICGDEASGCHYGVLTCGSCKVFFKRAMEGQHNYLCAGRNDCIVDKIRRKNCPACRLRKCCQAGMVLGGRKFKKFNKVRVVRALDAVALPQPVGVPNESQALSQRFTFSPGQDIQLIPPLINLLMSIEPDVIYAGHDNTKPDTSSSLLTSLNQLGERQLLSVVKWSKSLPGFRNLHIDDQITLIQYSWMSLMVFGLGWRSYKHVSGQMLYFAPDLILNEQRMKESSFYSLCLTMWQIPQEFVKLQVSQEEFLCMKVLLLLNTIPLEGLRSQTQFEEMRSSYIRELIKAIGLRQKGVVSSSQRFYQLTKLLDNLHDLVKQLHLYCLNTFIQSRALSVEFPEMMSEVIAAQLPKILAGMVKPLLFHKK
# How it was run: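 Cells (PR-UAS-bla HEK 293T, GripTite) were plated in assay medium containing 2% charcoal-stripped FBS and incubated 6 hr. Test compounds in DMSO were added for 16 hr at 37C. FRET substrate was then loaded for 2 hr at room temperature before fluorescence reading.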
# [10] = qHTS assay for identifying genotoxic compounds that show differential cytotoxicity against isogenic chicken DT40 cell lines with known DNA damage response pathways - Rad54/Ku70 mutant cell line (AID 743015); conditions: DT40 Rad54/Ku70 mutant viability, CellTiter-Glo, 40 h; activity change, negative = cytotoxicity: at 66.8 µM (top of the series) unless noted; note: nearly all actives have a fitted effect of over 60% in size; note: potency is the fitted concentration of half-maximal effect
# [11] = biological target: Peroxisome proliferator-activated receptor delta (Homo sapiens) (UniProt Q03181); experiment: qHTS assay to identify small molecule antagonists of the peroxisome proliferator-activated receptor delta (PPARd) signaling pathway (AID 743215; active = well fitted inhibition curve with a large enough effect in the signal ratio in the repeat runs, not every such curve was filed as active; inconclusive = weak or mixed curves, or effect the other way; inactive = no such curve, though single readings can be large or run the other way; the % refers to the signal ratio;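 note: cells stimulated with agonist L165041 at 300 nM final during compound exposure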); conditions: HEK293H PPARd-UAS-bla, beta-lactamase FRET ratio, antagonist, 17 h; ratio activity, negative = inhibition: at 62 µM (top of the series) unless noted
# Chain of UniProt Q03181 (Q03181 whole entry, looked up): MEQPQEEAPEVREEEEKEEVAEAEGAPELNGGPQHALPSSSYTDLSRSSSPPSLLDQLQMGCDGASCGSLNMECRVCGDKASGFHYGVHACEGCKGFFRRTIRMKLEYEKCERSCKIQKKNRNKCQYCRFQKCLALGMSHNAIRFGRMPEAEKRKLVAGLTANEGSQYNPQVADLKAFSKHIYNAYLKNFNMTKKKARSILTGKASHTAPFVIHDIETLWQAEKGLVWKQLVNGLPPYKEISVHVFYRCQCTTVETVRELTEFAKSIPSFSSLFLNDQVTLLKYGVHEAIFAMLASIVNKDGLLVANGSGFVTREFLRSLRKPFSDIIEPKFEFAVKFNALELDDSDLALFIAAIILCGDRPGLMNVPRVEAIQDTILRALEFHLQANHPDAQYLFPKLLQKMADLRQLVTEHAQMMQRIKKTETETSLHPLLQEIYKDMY
# How it was run: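 PPARd-bla HEK293H cells (UAS-bla reporter) preincubated 5 h, then given compound plus 300 nM final L165041 agonist for 17 h at 37 C. Beta-lactamase activity read by LiveBLAzer B/G FRET substrate fluorescence after 2 h at room temperature.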
# [12] = biological target: Thyrotropin receptor (Homo sapiens) (UniProt P16473); experiment: qHTS assay to identify small molecule agonists of the thyroid stimulating hormone receptor (TSHR) signaling pathway (AID 1224843; calls by dose curve; note: nearly all actives have a fitted effect of over 45% in size; note: potency is the fitted concentration of half-maximal effect); conditions: TSHR-HEK293 cells, cAMP HTRF, agonist mode, 30 min; activation: at 92.4 µM (top of the series) unless noted
# How it was run: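 HEK293 cells stably bearing the thyrotropin receptor were plated at 800 cells/well and challenged with compound (30 min, RT). Accumulated cAMP was quantified via cAMP-d2 competing for cryptate-tagged antibody.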
# [13] = Human pregnane X receptor (PXR) small molecule agonists, qHTS cell viability counter screen (AID 1346977); note: nearly all actives have a fitted effect of over 50% in size; note: potency is the fitted concentration of half-maximal effect
# How it was run: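 Cytotoxicity counter screen run in the same wells as the PXR luciferase assay, using PXR-Luc HepG2 cells in charcoal-stripped serum medium. Viability: CellTiter-Fluor fluorescence after 24hr compound treatment.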
# [14] = biological target: Estrogen receptor beta (Homo sapiens) (UniProt Q92731); experiment: qHTS assay to identify small molecule agonists of the estrogen receptor beta (ER-beta) signaling pathway (AID 1259377; active = well fitted activation curve with a large enough effect in the signal ratio in the repeat runs, not every such curve was filed as active; inconclusive = weak or mixed curves, or effect the other way; the % refers to the signal ratio; note: potency is the fitted concentration of half-maximal effect); conditions: ER-beta-UAS-bla HEK293T, beta-lactamase FRET ratio, 16 h; activation: at 92.4 µM (top of the series) unless noted
# Chain of UniProt Q92731 (Q92731 whole entry, looked up, the tested form may be a part): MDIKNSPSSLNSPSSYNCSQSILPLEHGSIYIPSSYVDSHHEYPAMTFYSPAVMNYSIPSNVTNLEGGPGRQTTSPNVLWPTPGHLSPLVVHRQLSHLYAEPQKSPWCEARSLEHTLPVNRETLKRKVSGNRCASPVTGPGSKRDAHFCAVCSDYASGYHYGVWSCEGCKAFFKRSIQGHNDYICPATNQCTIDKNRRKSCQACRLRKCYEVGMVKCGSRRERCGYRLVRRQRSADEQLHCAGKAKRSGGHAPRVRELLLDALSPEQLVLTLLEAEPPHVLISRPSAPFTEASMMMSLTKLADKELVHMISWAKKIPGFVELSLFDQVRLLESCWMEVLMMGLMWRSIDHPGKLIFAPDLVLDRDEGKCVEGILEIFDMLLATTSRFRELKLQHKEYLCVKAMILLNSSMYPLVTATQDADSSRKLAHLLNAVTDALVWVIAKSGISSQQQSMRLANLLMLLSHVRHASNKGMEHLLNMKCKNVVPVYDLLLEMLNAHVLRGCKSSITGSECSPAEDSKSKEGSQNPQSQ
# How it was run: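 Agonist mode cell assay in GripTite HEK293T cells expressing an ER-beta fusion that drives beta-lactamase from an Upstream Activator Sequence; 16 hr compound exposure at 37C, then 2 h LiveBLAzer B/G FRET substrate at room temperature, fluorescence read-out.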
# [15] = biological target: Aryl hydrocarbon receptor (Homo sapiens) (UniProt P35869); experiment: qHTS assay to identify small molecule that activate the aryl hydrocarbon receptor (AhR) signaling pathway (AID 743085); note: nearly all actives have a fitted effect of over 15% in size; note: potency is the fitted concentration of half-maximal effect;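 for activation: HG2L7.5c1 human HepG2 liver cells with stably integrated DRE-driven firefly reporter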
# Chain of UniProt P35869 (P35869 whole entry, looked up): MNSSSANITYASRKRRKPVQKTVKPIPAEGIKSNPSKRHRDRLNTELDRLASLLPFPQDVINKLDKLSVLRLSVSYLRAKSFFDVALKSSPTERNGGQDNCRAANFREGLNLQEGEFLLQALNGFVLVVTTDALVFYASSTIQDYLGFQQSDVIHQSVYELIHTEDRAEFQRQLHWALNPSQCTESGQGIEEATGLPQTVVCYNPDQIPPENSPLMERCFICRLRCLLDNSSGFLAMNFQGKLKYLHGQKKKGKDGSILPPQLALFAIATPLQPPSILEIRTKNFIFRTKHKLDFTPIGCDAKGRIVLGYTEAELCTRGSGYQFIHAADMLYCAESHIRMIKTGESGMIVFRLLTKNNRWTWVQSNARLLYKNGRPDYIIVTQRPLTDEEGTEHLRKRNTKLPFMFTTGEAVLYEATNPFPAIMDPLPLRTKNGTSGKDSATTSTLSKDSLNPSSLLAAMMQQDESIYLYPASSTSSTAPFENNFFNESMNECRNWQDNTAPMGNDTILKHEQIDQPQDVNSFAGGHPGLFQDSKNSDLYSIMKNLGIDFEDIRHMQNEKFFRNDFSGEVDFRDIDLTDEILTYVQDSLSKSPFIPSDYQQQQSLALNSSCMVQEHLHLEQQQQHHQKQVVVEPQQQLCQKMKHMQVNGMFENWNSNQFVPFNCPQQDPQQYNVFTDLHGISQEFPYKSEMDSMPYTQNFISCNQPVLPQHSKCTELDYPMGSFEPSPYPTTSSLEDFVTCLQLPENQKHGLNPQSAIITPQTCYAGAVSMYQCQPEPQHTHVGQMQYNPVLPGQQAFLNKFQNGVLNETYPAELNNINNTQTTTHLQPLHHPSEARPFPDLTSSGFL
# How it was run: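 Compounds were tested in HepG2 hepatocellular carcinoma cells harbouring a stably integrated luciferase gene under control of 20 DREs. Increased reporter signal after 24 h treatment at 37C was taken as AhR activation.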
# [16] = qHTS RealTime-Glo MT Cell Viability Assay in HEK293 cells - 32 hour (AID 1224868); note: nearly all actives have a fitted effect of over 50% in size; note: potency is the fitted concentration of half-maximal effect
# How it was run: as §1
# [17] = qHTS assay for small molecule activators of the heat shock response signaling pathway (AID 743210; active = well fitted activation curve with a large enough effect in the signal ratio in the repeat runs, with a control signal flat, not every such curve was filed as active; inconclusive = weak or mixed curves; the % refers to the signal ratio;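 note: HeLa cells with beta-lactamase reporter driven by heat shock elements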); conditions: HeLa HSE-bla reporter, beta-lactamase ratio, 5 h; activation: at 62.6 µM (top of the series) unless noted
# How it was run: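 In HSE-bla HeLa cells, 5 h compound incubation (37 C) precedes addition of LiveBLAzer B/G substrate; after 2.5 h at room temperature, fluorescence intensity indicates reporter induction.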
# [18] = biological target: Luciferin 4-monooxygenase (Photinus pyralis) (UniProt P08659); experiment: qHTS assay to identify small molecule inhibitors of firefly luciferase (AID 1224835); note: nearly all actives have a fitted effect of over 25% in size; note: potency is the fitted concentration of half-maximal effect
# Chain of UniProt P08659 (P08659 whole entry, looked up): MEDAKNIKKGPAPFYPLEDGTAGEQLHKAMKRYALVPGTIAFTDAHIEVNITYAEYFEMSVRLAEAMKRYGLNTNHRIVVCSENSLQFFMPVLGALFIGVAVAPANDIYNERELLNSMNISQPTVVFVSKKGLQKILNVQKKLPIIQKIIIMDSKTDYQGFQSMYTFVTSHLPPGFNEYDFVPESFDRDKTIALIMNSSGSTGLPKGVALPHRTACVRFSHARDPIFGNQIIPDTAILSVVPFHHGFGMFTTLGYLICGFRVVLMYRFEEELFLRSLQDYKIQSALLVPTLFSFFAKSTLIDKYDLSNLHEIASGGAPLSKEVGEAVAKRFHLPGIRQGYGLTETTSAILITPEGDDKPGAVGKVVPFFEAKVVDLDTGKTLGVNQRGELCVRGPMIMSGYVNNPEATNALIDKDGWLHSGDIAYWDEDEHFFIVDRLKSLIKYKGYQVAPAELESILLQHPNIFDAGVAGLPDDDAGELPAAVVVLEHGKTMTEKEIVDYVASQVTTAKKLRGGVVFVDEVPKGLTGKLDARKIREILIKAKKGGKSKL
# How it was run: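 Inhibition of purified Photinus luciferase is measured by luminescence. Substrate levels (D-luciferin, ATP) sit at their KM values. Each compound is tested in a concentration series.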
# [19] = biological target: Nuclear receptor subfamily 1 group I member 2 (Homo sapiens) (UniProt O75469); experiment: Human pregnane X receptor (PXR) small molecule agonists, qHTS assay (AID 1346982); note: nearly all actives have a fitted effect of over 35% in size; note: potency is the fitted concentration of half-maximal effect
# Chain of UniProt O75469 (O75469 whole entry, looked up): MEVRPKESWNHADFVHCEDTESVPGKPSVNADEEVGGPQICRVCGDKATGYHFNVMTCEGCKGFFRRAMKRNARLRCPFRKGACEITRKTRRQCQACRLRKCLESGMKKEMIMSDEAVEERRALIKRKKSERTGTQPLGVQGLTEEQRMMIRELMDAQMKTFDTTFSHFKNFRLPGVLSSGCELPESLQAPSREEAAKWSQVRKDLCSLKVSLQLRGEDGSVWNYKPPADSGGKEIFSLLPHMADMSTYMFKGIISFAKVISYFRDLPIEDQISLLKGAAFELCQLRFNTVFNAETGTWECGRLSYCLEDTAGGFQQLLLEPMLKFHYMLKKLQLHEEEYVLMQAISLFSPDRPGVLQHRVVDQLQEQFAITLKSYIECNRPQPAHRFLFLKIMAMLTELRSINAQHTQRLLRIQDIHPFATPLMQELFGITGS
# How it was run: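 PXR-Luc HepG2 reporter cells (CYP3A4-driven luciferase) in 5% charcoal-stripped FBS medium, plated 5 h before compound addition, then treated 24 h at 37C. Luciferase read by ONE-Glo luminescence after 30 min at room temperature.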
# Tags give direction and shape of the fitted curve or compound fluorescence and quenching.
smiles,measurement,setting,value
O=C(O)c1ccc(Cl)cc1Cl,Potency,[1],inactive
same,Potency,[2],inactive
CC1=C(O)C(=O)CO1,Potency,[3],inactive
same,Potency,[4],inactive
same,Potency,[5],inactive
same,Potency,[6],inactive
C=C(C)[C@H]1CC=C(C)CC1,Potency,[3],inactive
same,Potency,[4],inactive
same,Potency,[7],inactive
same,Potency,[8],inactive
same,Potency,[1],inactive
same,Potency,[9],inactive
CN=C(NC#N)NCCSCc1nc[nH]c1C,Potency,[10],inactive and active: 13.6 µM
same,Potency,[8],"inconclusive: 4.85 µM [cytotoxic, full curve, poor fit]"
same,Potency,[11],inactive
same,Potency,[12],inactive
same,Potency,[9],inconclusive: 0.0007 µM
same,Potency,[13],inactive
C[C@]12CC[C@@H]3c4ccc(O)cc4CC[C@H]3[C@@H]1C[C@@H](O)[C@@H]2O,Potency,[2],"inconclusive: 1.95 µM [cytotoxic, partial curve, poor fit]"
same,Potency,[5],inactive
same,Potency,[14],active: 4.3 nM and active: 3 nM
same,Potency,[6],"inconclusive: 61.1 µM [cytotoxic, partial curve] and inconclusive: 23.7 µM [cytotoxic, partial curve]"
same,activation,[9],inconclusive: 12.7% [at 42.5 µM]
CCOC(=O)c1ccc(N)cc1,Potency,[4],"inconclusive: 1.74 µM [rising, full curve, poor fit]"
same,Potency,[15],inconclusive: 12.7 µM [activator] and inconclusive: 68.6 µM [activator]
same,Potency,[8],"inconclusive: 11 µM [cytotoxic, single point] and inactive"
same,Potency,[1],"inconclusive: 0.0022 µM [rising, full curve, poor fit]"
same,Potency,[16],"inconclusive: 38.9 µM [cytotoxic, partial curve, poor fit]"
same,Potency,[5],"inconclusive: 43.6 µM [cytotoxic, partial curve, poor fit]"
same,activation,[14],inconclusive: -0.203%
CCCCCCCCOC(C)=O,activation,[17],inconclusive: 5.18%
same,Potency,[18],inactive
OCc1cccc(Oc2ccccc2)c1,Potency,[10],"inconclusive: 77 µM [cytotoxic, partial curve, poor fit]"
same,"ratio activity, negative = inhibition",[11],inconclusive: -17.5% [at 80.4 µM]
same,Potency,[18],"inconclusive: 72.1 µM [inhibitor, partial curve, poor fit] and inconclusive: 79.6 µM [inhibitor, partial curve]"
same,activation,[14],inconclusive: 10.1% and inconclusive: 8.23%
same,Potency,[19],"inconclusive: 69.6 µM [activator, single point] and inconclusive: 61.1 µM [activator, single point]"
CN/C(=C\[N+](=O)[O-])NCCSCc1ccc(CN(C)C)o1,Potency,[7],inactive
same,Potency,[8],"inconclusive: 12.3 µM [cytotoxic, single point]"
same,"ratio activity, negative = inhibition",[11],inconclusive: 0.886%
same,Potency,[2],inactive
same,Potency,[14],"inconclusive: 15.4 µM [activator, partial curve]"
CCc1cccc(CC)c1,Potency,[16],"inconclusive: 43.6 µM [rising, partial curve, poor fit]"
same,Potency,[6],inactive
same,Potency,[13],inactive
COc1cc(C(=O)NCc2ccc(OCCN(C)C)cc2)cc(OC)c1OC,Potency,[4],"inconclusive: 0.91 µM [cytotoxic, full curve, poor fit]"
same,"activity change, negative = inhibition",[7],inconclusive: -5.37% [at 32.5 µM]
same,Potency,[2],inactive
NCCN1CCNC1=O,Potency,[2],"inconclusive: 1.1 µM [cytotoxic, single point]"
C=CCS(=O)(=O)O,Potency,[4],inactive
same,Potency,[15],"inconclusive: 21.7 µM [activator, partial curve, poor fit]"
same,Potency,[16],inactive
same,Potency,[13],"inconclusive: 27.3 µM [cytotoxic, single point]"
same,Potency,[19],"inconclusive: 27.3 µM [activator, single point]"
CC(C)COC(=O)COc1ccc(Cl)cc1Cl,Potency,[12],"inconclusive: 13.7 µM [inhibitor, full curve, poor fit]"
same,Potency,[16],inactive
FC(F)(F)c1ccccc1-n1ccnc1,Potency,[1],"inconclusive: 18.8 µM [cytotoxic, single point]"
same,Potency,[2],inactive
CCCCCCCCCCCCCCCCC,Potency,[1],inactive
same,Potency,[12],inactive
same,Potency,[16],inactive
same,Potency,[19],inactive
CC(=C(CCOC(=O)C(C)C)SSC(CCOC(=O)C(C)C)=C(C)N(C=O)Cc1cnc(C)nc1N)N(C=O)Cc1cnc(C)nc1N,Potency,[3],inactive
same,Potency,[8],inactive
same,Potency,[5],inactive
CCCCC(CC)COC(=O)CCCCC(=O)OCC(CC)CCCC (stereo not drawn),Potency,[3],inactive
same,Potency,[7],inactive
same,Potency,[8],inactive
same,Potency,[11],inactive
same,Potency,[19],"inconclusive: 24.2 µM [activator, partial curve, poor fit]"
CCC(C)(CN(C)C)OC(=O)c1ccccc1 (stereo not drawn),Potency,[17],inactive
same,Potency,[1],"inconclusive: 0.0422 µM [rising, partial curve, poor fit]"
same,Potency,[16],inactive
same,Potency,[6],inactive
same,Potency,[13],inactive
C[N+](C)(C)CC(O)CCl (stereo not drawn),Potency,[7],"inconclusive: 69.3 µM [falling, single point]"
same,Potency,[15],inactive
same,Potency,[12],inactive
